T1: CYP2C8 (Homo sapiens, UniProt P10632)
T1 sequence (P10632 1-490): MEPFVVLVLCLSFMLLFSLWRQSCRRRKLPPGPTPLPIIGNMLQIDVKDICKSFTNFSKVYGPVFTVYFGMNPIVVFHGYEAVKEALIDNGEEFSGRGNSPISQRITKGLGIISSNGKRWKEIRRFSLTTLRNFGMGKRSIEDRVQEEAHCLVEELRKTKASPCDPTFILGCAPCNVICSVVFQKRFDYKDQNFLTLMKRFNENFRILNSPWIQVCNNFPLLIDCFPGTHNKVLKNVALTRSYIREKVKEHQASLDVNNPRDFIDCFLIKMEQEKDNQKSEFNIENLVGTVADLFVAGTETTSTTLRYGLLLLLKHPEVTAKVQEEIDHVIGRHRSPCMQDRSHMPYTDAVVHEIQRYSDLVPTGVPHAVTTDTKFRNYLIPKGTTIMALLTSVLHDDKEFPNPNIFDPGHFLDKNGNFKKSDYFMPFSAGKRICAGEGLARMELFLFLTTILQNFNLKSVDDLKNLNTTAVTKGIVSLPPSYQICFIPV


Legend:
CYP2C8 [1] = biological target: T1, CYP2C8; experiment: Steady-state kinetics of overall NSAID metabolism; format: in vitro ADME; conditions: overall metabolism by CYP2C8; Vmax/Km
CYP2C19 [2] = biological target: T2, CYP2C19 (Homo sapiens, UniProt P33261); experiment: Steady-state kinetics of overall NSAID metabolism; format: in vitro ADME; conditions: overall metabolism by CYP2C19; Vmax/Km
CYP3A4 [3] = biological target: T3, CYP3A4 (Homo sapiens, UniProt P08684); experiment: Steady-state kinetics of overall NSAID metabolism; format: in vitro ADME; conditions: overall metabolism by CYP3A4; Vmax/Km
CYP2C8 [4] = biological target: T1, CYP2C8; experiment: Relative CYP contribution to hepatic bioactivation and detoxification, CYP2C8; format: in vitro ADME; conditions: sum of bioactivation ksp values
CYP2C9 = CYP2C9 (Homo sapiens, UniProt P11712); experiment: Relative CYP contribution to hepatic bioactivation and detoxification, CYP2C9; format: in vitro ADME; conditions: sum of bioactivation ksp values
CYP2C19 [5] = biological target: T2, CYP2C19; experiment: Relative CYP contribution to hepatic bioactivation and detoxification, CYP2C19; format: in vitro ADME; conditions: sum of bioactivation ksp values
CYP3A4 [6] = biological target: T3, CYP3A4; experiment: Relative CYP contribution to hepatic bioactivation and detoxification, CYP3A4; format: in vitro ADME; conditions: sum of bioactivation ksp values
[7] = substrate: Cc1ccc(Cl)c(Nc2ccccc2C(=O)O)c1Cl; experiment: cells, lysate or membranes named; conditions: other: CYP2C9; metabolite M6, path 3; 95% CI in parentheses; pH 7.4
[8] = substrate: Cc1ccc(Nc2c(F)cccc2Cl)c(CC(=O)O)c1; experiment: cells, lysate or membranes named; conditions: other: CYP2C9; metabolite M6a, path 3; 95% CI in parentheses; pH 7.4
[9] = substrate: O=C(O)COC(=O)Cc1ccccc1Nc1c(Cl)cccc1Cl; experiment: cells, lysate or membranes named; conditions: other: CYP2C9; metabolite M6, path 3; 95% CI in parentheses; pH 7.4

T2 sequence (P33261 whole entry): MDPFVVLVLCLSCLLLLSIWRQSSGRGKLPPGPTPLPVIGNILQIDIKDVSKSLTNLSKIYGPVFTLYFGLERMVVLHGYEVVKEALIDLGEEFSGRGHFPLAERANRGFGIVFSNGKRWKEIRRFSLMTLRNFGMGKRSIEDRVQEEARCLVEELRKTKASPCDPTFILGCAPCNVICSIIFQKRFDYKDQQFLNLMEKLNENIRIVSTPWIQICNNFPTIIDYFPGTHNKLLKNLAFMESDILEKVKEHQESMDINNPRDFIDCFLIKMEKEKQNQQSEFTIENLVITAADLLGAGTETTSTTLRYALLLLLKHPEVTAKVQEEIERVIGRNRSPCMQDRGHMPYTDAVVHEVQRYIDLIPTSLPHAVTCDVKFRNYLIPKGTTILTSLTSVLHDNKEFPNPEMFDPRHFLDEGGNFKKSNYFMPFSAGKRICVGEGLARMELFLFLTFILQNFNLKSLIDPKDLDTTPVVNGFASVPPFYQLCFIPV
T3 sequence (P08684 whole entry): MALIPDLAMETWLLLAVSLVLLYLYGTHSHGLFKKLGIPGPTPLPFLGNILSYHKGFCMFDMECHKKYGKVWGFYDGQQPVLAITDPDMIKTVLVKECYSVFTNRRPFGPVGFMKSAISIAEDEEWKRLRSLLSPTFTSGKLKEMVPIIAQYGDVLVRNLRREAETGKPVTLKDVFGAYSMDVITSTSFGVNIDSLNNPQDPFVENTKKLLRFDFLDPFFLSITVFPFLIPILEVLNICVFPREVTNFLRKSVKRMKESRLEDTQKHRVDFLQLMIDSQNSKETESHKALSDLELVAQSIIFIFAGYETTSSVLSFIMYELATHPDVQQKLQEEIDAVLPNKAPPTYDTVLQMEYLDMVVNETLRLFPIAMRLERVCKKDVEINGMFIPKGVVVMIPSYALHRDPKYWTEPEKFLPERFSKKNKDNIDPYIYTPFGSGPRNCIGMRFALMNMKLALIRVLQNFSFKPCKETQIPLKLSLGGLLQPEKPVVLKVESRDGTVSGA

Row | Molecule | ksp (CYP2C8 [1]) | ksp (CYP2C19 [2]) | ksp (CYP3A4 [3]) | Bioactivation ksp,total (CYP2C8 [4]) | Bioactivation ksp,total (CYP2C9) | Bioactivation ksp,total (CYP2C19 [5]) | Bioactivation ksp,total (CYP3A4 [6]) | Km [7] | kcat [7] | Km [8] | kcat [8] | Km [9] | kcat [9]
1 | O=C(O)COC(=O)Cc1ccccc1Nc1c(Cl)cccc1Cl [ACE, aceclofenac] | 15.8 pmol/min/nmol protein/μM substrate | 8.0 pmol/min/nmol protein/μM substrate | 29.7 pmol/min/nmol protein/μM substrate | 0.90 pmol/min/nmol protein/μM substrate | 12.6 pmol/min/nmol protein/μM substrate | 1.51 pmol/min/nmol protein/μM substrate | 0.109 pmol/min/nmol protein/μM substrate |  |  |  |  |  | 
2 | O=C(O)Cc1ccccc1Nc1c(Cl)cccc1Cl [DIC, diclofenac] | 15.0 pmol/min/nmol protein/μM substrate | 27.5 pmol/min/nmol protein/μM substrate | 42.2 pmol/min/nmol protein/μM substrate | 0.013 pmol/min/nmol protein/μM substrate |  | 1.50 pmol/min/nmol protein/μM substrate | 0.20 pmol/min/nmol protein/μM substrate |  |  |  |  |  | 
3 | O=C(O)c1ccccc1Nc1cccc(C(F)(F)F)c1 [FLU, flufenamic acid] |  | 16.7 pmol/min/nmol protein/μM substrate | 40.8 pmol/min/nmol protein/μM substrate |  | 1.20 pmol/min/nmol protein/μM substrate | 0.27 pmol/min/nmol protein/μM substrate | 1.04 pmol/min/nmol protein/μM substrate |  |  |  |  |  | 
4 | Cc1ccc(Nc2c(F)cccc2Cl)c(CC(=O)O)c1 [LUM, lumiracoxib] |  | 33.8 pmol/min/nmol protein/μM substrate | 31.7 pmol/min/nmol protein/μM substrate |  | 5.66 pmol/min/nmol protein/μM substrate | 0.147 pmol/min/nmol protein/μM substrate | 0.146 pmol/min/nmol protein/μM substrate |  |  |  |  |  | 
5 | Cc1ccc(Cl)c(Nc2ccccc2C(=O)O)c1Cl [MEC, meclofenamic acid] |  | 15.0 pmol/min/nmol protein/μM substrate | 41.2 pmol/min/nmol protein/μM substrate |  | 2.23 pmol/min/nmol protein/μM substrate | 4.36 pmol/min/nmol protein/μM substrate | 0.648 pmol/min/nmol protein/μM substrate |  |  |  |  |  | 
6 | Cc1cccc(Nc2ccccc2C(=O)O)c1C [MEF, mefenamic acid] | 15.0 pmol/min/nmol protein/μM substrate | 13.9 pmol/min/nmol protein/μM substrate | 43.8 pmol/min/nmol protein/μM substrate | 0.179 pmol/min/nmol protein/μM substrate | 4.22 pmol/min/nmol protein/μM substrate | 0.295 pmol/min/nmol protein/μM substrate | 0.181 pmol/min/nmol protein/μM substrate |  |  |  |  |  | 
7 | Cc1c(Cl)cccc1Nc1ccccc1C(=O)O [TOL, tolfenamic acid] |  | 18.8 pmol/min/nmol protein/μM substrate | 37.3 pmol/min/nmol protein/μM substrate |  | 4.66 pmol/min/nmol protein/μM substrate | 0.705 pmol/min/nmol protein/μM substrate | 1.06 pmol/min/nmol protein/μM substrate |  |  |  |  |  | 
8 | CYP2C9 (Homo sapiens) (protein) MDSLVVLVLCLSCLLLLSLWRQSSGRGKLPPGPTPLPVIGNILQIGIKDISKSLTNLSKVYGPVFTLYFGLKPIVVLHGYEAVKEALIDLGEEFSGRGIFPLAERANRGFGIVFSNGKKWKEIRRFSLMTLRNFGMGKRSIEDRVQEEARCLVEELRKTKASPCDPTFILGCAPCNVICSIIFHKRFDYKDQQFLNLMEKLNENIKILSSPWIQICNNFSPIIDYFPGTHNKLLKNVAFMKSYILEKVKEHQESMDMNNPQDFIDCFLMKMEKEKHNQPSEFTIESLENTAVDLFGAGTETTSTTLRYALLLLLKHPEVTAKVQEEIERVIGRNRSPCMQDRSHMPYTDAVVHEVQRYIDLLPTSLPHAVTCDIKFRNYLIPKGTTILISLTSVLHDNKEFPNPEMFDPHHFLDEGGNFKKSKYFMPFSAGKRICVGEALAGMELFLFLTSILQNFNLKSLVDPKNLDTTPVVNGFASVPPFYQLCFIPV |  |  |  |  |  |  |  | 18.2 (12.9–25.0) μM | 9.4 (8.8–10.0) pmol/min/nmol protein | 7.6 (6.2–9.3) μM | 13.1 (12.7–13.6) pmol/min/nmol protein | 8.1 (6.5–9.9) μM | 43.5 (41.8–45.3) pmol/min/nmol protein

Source: paper PMC8710044 (Biochemical pharmacology, 2021)
